Reference: PubChem BioAssay AID504832 (National Center for Advancing Translational Sciences (NCATS), 2011)
The whole screen tested about 310,000 compounds, of which about 18,000 (5.8%) were called active. This list was built around the results that the source calls inconclusive (neither active nor inactive); the mix of calls is not that of the screen. Calls come from the whole dose curve; as a rule, active = well fitted inhibition curve with a large enough effect; inconclusive = small, poorly fitted or top-dose-only effect, or another doubt; inactive = no such curve, though single readings can be large or run the other way. Potencies of inconclusive entries are left out as doubtful fits.

Test: Primary qHTS for delayed death inhibitors of the malarial parasite plastid, 48 hour incubation
Conditions: P. falciparum luciferase growth in erythrocytes; series mostly up to 28.7 µM
Summary of the method: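 First compound was added to culture medium, then infected red cells at 0.1% parasitemia and 2% hematocrit (final). After incubation at 37 C under 5% CO2, luciferase detection reagent was dispensed and light output recorded.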
Potency is the fitted concentration of half-maximal effect; tags give direction and shape of the fitted curve.

Row | SMILES | Potency
1 | COC(c1ccccc1)c1nnc(CCC(=O)N(C)CCCC2CCCC2)o1 (stereo not given) | inactive
2 | CSc1ncc(Cl)c(C(=O)Nc2nnc(SC)s2)n1 | inactive
3 | CC(=O)[C@]1(O)CCC2C3C=C(Cl)C4=CC(=O)C5CC5[C@@]4(C)C3CC[C@]21C (stereo not given in full) | inactive
4 | COC(=O)c1cc(S(=O)(=O)N2CCN(c3cccc(C)c3C)CC2)c[nH]1 | inconclusive [inhibitor, partial curve, poor fit]
5 | COc1cc2c(cc1NC(=O)COC(=O)[C@@H](NC(=O)c1ccccc1F)C(C)C)oc1ccccc12 | inconclusive [inhibitor, partial curve, poor fit]
6 | COC(=O)C(C)n1cnc2c(nnn2Cc2ccc(Cl)cc2)c1=O (stereo not given) | inconclusive [inhibitor, full curve, poor fit]
7 | CCOC(=O)c1ccc2[nH]c3c(c2c1)CCCC3 | inactive
8 | O=C(CNC(=O)c1cc(S(=O)(=O)N2CCCCC2)ccc1N1CCOCC1)Nc1ccc(F)c(F)c1 | inconclusive [inhibitor, single point]
9 | C=CCNC(=S)N1CCN(c2ccccc2Cl)CC1 | inconclusive [inhibitor, partial curve, poor fit]
10 | O=C(/C=C/c1ccccc1)N1CCN(c2ccc([N+](=O)[O-])c(N3CCOCC3)c2)CC1 | inconclusive [inhibitor, single point]
11 | O=c1[nH]c(-[n+]2ccccc2)c(/C=N/N=C(\[O-])c2ccccc2)s1 | inactive
12 | COc1cccc(-n2c(SCC(=O)NCC3CCCO3)nc3c([nH]c4ccccc43)c2=O)c1 (stereo not given) | inconclusive [inhibitor, single point]
13 | CN(C)C(=S)NC(=NCc1ccc([N+](=O)[O-])cc1)c1ccccc1 | inconclusive [inhibitor, partial curve, poor fit]
14 | c1ccc(Cn2nnc(-c3ccccc3)n2)cc1 | inactive
15 | CCOc1ccc(C(=O)Nc2nnc(NC(=S)Nc3ccccc3)s2)cc1 | inconclusive [inhibitor, full curve, poor fit]
16 | CC(C)=CC(=O)Nc1ccc(Cl)cc1 | inactive
17 | CCCCC(CC)COC1(c2ccccc2)OC(=O)c2ccccc21 (stereo not given) | active: 9.28 µM
18 | Cc1c(NC(=O)C(C)OC(=O)c2ncc(Cl)c(Cl)c2Cl)c(=O)n(-c2ccccc2)n1C (stereo not given) | inconclusive [inhibitor, single point]
19 | COc1ccc(S(=O)(=O)N2CCN(C(=S)NC3CCCCC3)CC2)cc1 | active: 0.928 µM
20 | C=CCn1c(C)cc(C(=O)CN2C(=O)c3ccccc3S2(=O)=O)c1C | inconclusive [inhibitor, single point]
21 | Cc1ccc(C(=O)CSc2n[nH]c(-c3ccco3)n2)cc1C | inactive
22 | CN(C)c1cc[n+](CC(=O)c2ccc(Br)cc2)cc1 | inconclusive [inhibitor, full curve]
23 | O=C(CO/N=C/c1ccccc1Cl)N1CCCc2ccccc21 | inactive

Row | SMILES | Potency
24 | COCC(=O)N1CCc2ccc(NC(=O)c3ccccc3Cl)cc2C1 | inactive
25 | Cc1cccc(-n2c(O)c(/C=C3/C(c4ccccc4)=Nc4ccccc43)c(=O)[nH]c2=O)c1 | active: 10.4 µM
26 | CN(c1ccccc1)S(=O)(=O)c1ccc(C(=O)Nc2ncccc2O)cc1 | active: 6.57 µM
27 | O=C(Nc1cccc(Cl)c1)c1ccc(NCCCN2CCOCC2)c([N+](=O)[O-])c1 | inconclusive [inhibitor, partial curve, poor fit]
28 | CCOC(=O)Cc1csc(NC(=O)CSc2ccc(Br)cc2)n1 | active: 10.4 µM
29 | O=C(O)c1ccc(N2C(=O)/C(=C\c3ccccc3)N=C2c2ccccc2)cc1 | inactive
30 | Cc1cc(C)nc(NC(N)=NC2CCCCC2)n1 | inconclusive [inhibitor, single point]
31 | O=C(CN1CCC(n2nnc3cc(C(F)(F)F)ccc32)CC1)NCc1cccs1 | inconclusive [inhibitor, single point]
32 | COc1ccc(CC(=O)Nc2ccc(C(=O)Nc3nccs3)cc2)cc1OC | inconclusive [inhibitor, partial curve]
33 | COc1ccccc1-c1sc2cc3c(cc2c1-c1ccc2c(c1)OCO2)OCO3 | inconclusive [inhibitor, partial curve]
34 | COC(=O)CC(NS(=O)(=O)c1cccs1)c1cccc2ccccc12 (stereo not given) | inconclusive [inhibitor, partial curve]
35 | COc1cc(C(=O)NCC(=O)NNC(=O)C2COc3ccccc3O2)cc(OC)c1OC (stereo not given) | inconclusive [inhibitor, single point]
36 | Cc1cc2c(c(=O)n1CCCn1ccnc1)C(c1ccco1)C(C#N)=C(N)O2 (stereo not given) | inactive
37 | CCOc1cc(CNCCO)cc(Br)c1OCc1cccs1 | inconclusive [inhibitor, partial curve, poor fit]
38 | CCOc1ccc(N(CC)S(=O)(=O)c2cccc3nsnc23)cc1 | inactive
39 | N#Cc1c(Sc2ncc(C(F)(F)F)cc2Cl)nsc1C/C=N\OCc1c(F)cccc1Cl | inconclusive [inhibitor, partial curve]
40 | C=C(C)COc1ccc(-c2nc(N)nc(C(F)(F)F)c2-c2ccc(OC)cc2)c(O)c1 | active: 2.94 µM
41 | CCc1cc2c(=O)n(CC(C)C)cnc2s1 | inactive
42 | O=C(NCc1ccccc1Cl)C1CCCN(c2ncnc3c2nc2n3CCCCC2)C1 (stereo not given) | inconclusive [inhibitor, partial curve, poor fit]
43 | Cc1cccc(C(=O)O[C@@H]2[C@H](Cc3ccccc3)NS(=O)(=O)[C@H]3C[C@@H]4C=C[C@]23O4)c1 | inconclusive [inhibitor, single point]
44 | O=C(NCc1nnc(SCc2ccccc2)n1-c1ccccc1)C12CC3CC(CC(C3)C1)C2 | inconclusive [inhibitor, partial curve]
45 | CCc1ccc(NC(=O)c2c(C(=O)Nc3ccccc3)sc3nc(C)cc(=O)n23)cc1 | inconclusive [inhibitor, partial curve, poor fit]
